Screen size: about 45,000 compounds; about 200 (0.44%) were called active. Inconclusive results (about 7%) are left out. The call rests on the fitted dose curve; in most records, active means well fitted activation curve with a large enough effect; inconclusive means small, poorly fitted or top-dose-only effect; inactive means no such curve, though single readings can be large or run the other way. This is one part of the list.
Assay: qHTS of TDP-43 Inhibitors: NCGC Sytravon Library Screen; further: 0% is about no effect; nearly all actives have a fitted effect of over 55% in size
Details: yeast TDP-43 toxicity rescue, BacTiter-Glo growth, 24 h; series mostly up to 46.1 µM; growth rescue (activation): at the top concentration
Summary of the method: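 TDP-43-expressing yeast, pregrown in raffinose, seeded at OD600 0.02 in galactose medium with compound for 24 hr at 30 deg C. Growth read by BacTiter-Glo luminescence, so rescue of toxicity appears as activation.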

| Structure (SMILES) | growth rescue (activation) |
| --- | --- |
| O=C(O)c1ccc(/C=N/NC(=O)c2ccc(F)cc2)cc1 | inactive: -1.27% |
| CN(C)C(CNc1ccc(S(C)(=O)=O)cc1[N+](=O)[O-])c1ccccc1 (centres undefined) | inactive: -16% |
| COc1ccc(-c2nn(CCC#N)cc2C(=O)Nc2cccc(C(=O)O)c2)cc1[N+](=O)[O-] | inactive: -3.54% |
| O=S(=O)(NCC1NCCc2ccccc21)c1ccccc1 (centres undefined) | inactive: -0.268% |
| CC(C)Oc1cccc(C(=O)C2CCCN(C(=O)c3ccoc3)C2)c1 (centres undefined) | inactive: 21.3% |
| Cc1cc(C)cc(NC(N)=S)c1 | inactive: 19.4% |
| Cc1ccc(/C=N/NC(=O)CSc2nc3ccccc3[nH]2)o1 | inactive: -4.42% |
| CCCCn1c(SCC(=O)Nc2cc(C)on2)nnc1-c1ccncc1 | inactive: -1.45% |
| O=C(NCc1ccco1)C1CCN(C(=O)c2ccc(Cl)cc2Cl)CC1 | inactive: 10.3% |
| O=C(/C=C/c1cccc([N+](=O)[O-])c1)NCCc1ccc(F)cc1 | inactive: -21.6% |
| Cc1ccccc1N1C(=O)CC2(CCCC2)CC1=O | inactive: -4.31% |
| O=C(NC1CC1)C1CCN(C(=O)c2ccc(Cl)cc2Cl)CC1 | inactive: 8.21% |
| O=C(CSc1ncn[nH]1)Nc1ccc([N+](=O)[O-])cc1Br | inactive: -23.7% |
| CCOc1ccc(N(CC(=O)N2CCCC2)S(=O)(=O)c2ccc(Cl)cc2)cc1 | inactive: -15.7% |
| CCOc1ccc(S(=O)(=O)N2CCC(C(=O)NC3CC3)CC2)cc1Cl | inactive: -4.84% |
| O=C1/C(=C\c2ccsc2)NC(=S)N1c1ccccc1 | inactive: 1.9% |
| CC(NS(=O)(=O)c1ccc(OCC(=O)NCc2ccccn2)cc1)c1ccccc1 (centres undefined) | inactive: -1.65% |
| COc1ccccc1NS(=O)(=O)c1ccc(/C=C/C(=O)O)cc1 | inactive: 2.01% |
| c1ccc(Cn2c(-c3ccccc3)c[n+]3c2SCCC3)cc1 | inactive: 1.07% |
| O=C(CCn1c(=O)oc2ccccc21)Nc1ccc(C(=O)O)cc1 | inactive: -12.2% |
| N#CCN(CC#N)C(=O)C1c2ccccc2Oc2ccccc21 | inactive: 5.92% |
| Cc1ccc(C(=O)O)cc1NC(=O)CSc1ncnc2sc3c(c12)CCC3 | inactive: 10.4% |

| Structure (SMILES) | growth rescue (activation) |
| --- | --- |
| CCCS(=O)(=O)N1CCCC(C(=O)NCCc2ccccc2)C1 (centres undefined) | inactive: 10.2% |
| O=C(CN(c1cccc(C(F)(F)F)c1)S(=O)(=O)c1ccc(Cl)c([N+](=O)[O-])c1)NCc1ccc(F)cc1 | inactive: 14.7% |
| C=CCNc1nc(=S)[nH]c2cc(OC)c(OC)cc12 | inactive: -7.13% |
| COc1ccccc1NC(=O)c1ccc(NC(=O)CN2CCCCC2)cc1 | inactive: -12% |
| CN(C)CCNC(=O)c1cccc(-c2cccc3nncn23)c1 | inactive: -18.5% |
| Cc1cc(C)nc(NS(=O)(=O)c2ccc(NC(=O)CSc3nc4ccccc4[nH]3)cc2)n1 | inactive: 9.56% |
| COc1ccc(N2CCN(C3CCCN(C(=O)c4cccc(C)n4)C3)CC2)cc1 (centres undefined) | inactive: -3.17% |
| COc1ccc(C(C)NC(=O)Cc2ccc(Br)cc2)cc1 (centres undefined) | inactive: 11% |
| O=C(Cc1cccs1)N1CCN(c2ccccn2)CC1 | inactive: -1.44% |
| O=C(Cc1c(F)cccc1Cl)OCN1C(=O)c2ccccc2C1=O | inactive: 17.1% |
| O=C(O)CNc1nc(-c2ccccc2)c2cc([N+](=O)[O-])ccc2n1 | inactive: 9.84% |
| CCc1nc(Nc2ccc(O)cc2)c2oc3ccccc3c2n1 | inactive: 18.2% |
| CC(C)=CCN1CCN(Cc2cc(CC(C)C)n[nH]2)CC1CCO (centres undefined) | inactive: -30.8% |
| COc1cc(OC)c(NC(=O)CC(C)=O)cc1Cl | inactive: 27.8% |
| COc1cccc(C(=O)NNC(=O)C(=O)N2CCCCC2)c1 | inactive: -1.27% |
| O=C(CNC(=O)c1ccc(Cl)cc1Cl)OCc1nc2ccccc2s1 | inactive: 5.65% |
| NC(=O)CCc1nc2cc(C(F)(F)F)ccc2n(Cc2ccccc2)c1=O | inactive: 9.73% |
| Cc1ccccc1/C=C\c1nc2ccccc2c(=O)n1Cc1ccccc1 | inactive: 10.4% |
| CC(=O)c1ccc(NC(=O)C2CCCN(S(=O)(=O)c3ccc(-n4cnnn4)cc3)C2)cc1 (centres undefined) | inactive: 15.6% |
| O=C(NNC(=O)C1[C@H]2CCCC[C@@H]12)Nc1cccc2ccccc12 (some centres undefined) | inactive: -7.97% |
| COc1cccc(N2CCN(C3OC(=O)c4ccccc43)CC2)c1 (centres undefined) | inactive: 12.6% |
| O=C(C1CCCN(S(=O)(=O)c2cccc3nsnc23)C1)N1CCc2ccccc2C1 (centres undefined) | inactive: 37.9% |

| Structure (SMILES) | growth rescue (activation) |
| --- | --- |
| COc1ccc(CNC(=O)CSc2cc(=O)n(C)c3ccccc23)cc1 | inactive: 5.28% |
| COc1ccccc1NC(CC(=O)c1ccccc1)C(=O)OCC(=O)c1ccc(F)cc1 (centres undefined) | inactive: 8.41% |
| O=C(NC1CCCCC1)C1CC(=O)N(c2ccccc2)C1 (centres undefined) | inactive: -15.8% |
| Cc1cc(C)c(S(=O)(=O)CCC(C)C)c(=O)[nH]1 | inactive: 6.45% |
| Cc1sc2c(c1C)CN(CCN1CCOCC1)CN2C(=O)c1ccccc1 | inactive: -2.04% |
| CCOc1cc(CNCc2cccs2)ccc1OCC(=O)NC(C)(C)C | inactive: 14.7% |
| CCc1ccc(NC(=O)CC2C(=O)N(c3ccc(C)cc3)C(=O)N2CCc2ccncc2)cc1 (centres undefined) | inactive: -3.6% |
| CC(OC(=O)CC(NC(=O)c1ccccc1Cl)c1ccccc1)C(=O)Nc1cccc(Cl)c1Cl (centres undefined) | inactive: 15.4% |
| NC(=O)NC(=O)COC(=O)CCSc1ccccc1 | inactive: 0.916% |
| CCN(CC)CCNC(=O)c1ccc(-n2c(C)cc3c2CCCC3=O)cc1 | inactive: 11.9% |
| Cc1ccc(S(=O)(=O)N2CC=C(C(=O)NCCC(C)C)CC2)cc1 | inactive: 9.27% |
| CC(C)CCN1CCNC(=O)C1CC(=O)N(C)CCCN1CCOCC1 (centres undefined) | inactive: 18.9% |
| CCOc1ccc(Br)cc1S(=O)(=O)N1CCCN(C)CC1 | inactive: -7.5% |
| Cc1ccc(NC(=S)N(CCCN2CCCC2)Cc2cccn2Cc2ccc(Cl)cc2)cc1 | inactive: -5.72% |
| Cc1onc(-c2ccccc2)c1C(=O)Nc1nnc(CC(C)C)s1 | inactive: -3.34% |
| C=CCn1c(O)c(C=Nc2ccccc2)sc1=S | inactive: 2.65% |
| C/C(=N\NC(=O)c1ccc(N/N=C(\C)c2ccncc2)cc1)c1ccncc1 | inactive: 14.9% |
| CC(=O)Nc1ccc(S(=O)(=O)N2CCN(Cc3cccs3)CC2)cc1 | inactive: -3.77% |
| Cc1cc(-c2nn(-c3ccccc3F)cc2CN2CCN(c3ccccn3)CC2)c(C)s1 | inactive: 1.15% |
| CC(=O)N1CCN(c2ccc(NCc3cccc4ccccc34)cc2)CC1 | inactive: 6.42% |
| O=C(O)CCNS(=O)(=O)c1ccc2c(c1)CCCC2 | inactive: 4.85% |
| CCN(Cc1ccccc1)C(=O)C1CCN(CC2CC=CCC2)CC1 (centres undefined) | inactive: 3.3% |

| Structure (SMILES) | growth rescue (activation) |
| --- | --- |
| CN(CC(=O)Nc1cccc(F)c1)CC(=O)Nc1cccc(S(=O)(=O)N(C)c2ccccc2)c1 | inactive: 20.4% |
| COc1ccc(C)cc1NCc1cc(=O)oc2cc(-c3ccccc3)c(O)cc12 | inactive: 26.6% |
| Nc1ncnc2c1ccn2[C@H]1CN(Cc2ccc(Cl)cc2)C[C@@H](CO)O1 | inactive: 8.57% |
| COc1ccccc1N1CCN(c2nc(C)cc(=O)[nH]2)CC1 | inactive: 1.46% |
| COC(=O)c1ccc(CNCC(O)COc2ccc(-c3ccccc3)cc2)cc1 (centres undefined) | inactive: 2.74% |
| COc1ccc(-c2cc(C(=O)OCC(=O)Nc3cc(C)on3)c3ccccc3n2)cc1OC | inactive: 0.438% |
| COCCn1cnc2c1c(=O)n(Cc1cc(C(C)=O)ccc1OC)c(=O)n2Cc1ccccc1 | inactive: 11.9% |
| COc1ccc(OC)c(-c2cc(C(F)(F)F)c3c(n2)sc2c(O)cc(=O)[nH]c23)c1 | inactive: 8.78% |
| Cc1ccc2cc(C)c(SCC(=O)Nc3ccc(S(=O)(=O)N4CCCC4)cc3)nc2c1 | inactive: 5.99% |
| Cc1ccc([N+](=O)[O-])cc1NC(=S)NC(=O)c1cccs1 | inactive: 12% |
| CCOC(=O)C1CCN(C(=O)COc2ccc3c(c2)OCO3)CC1 | inactive: 7.43% |
| COc1ccc(Cl)cc1N(CC(=O)NC(C)(C)C)S(=O)(=O)c1ccc(C)c([N+](=O)[O-])c1 | inactive: 10.6% |
| COc1ccc(-c2[nH]ncc2C(=O)NCc2ccc(F)cc2)cc1 | inactive: -5.59% |
| Cc1[nH]c2ccccc2c1/C=N/NC(=O)CNC(=O)c1cccs1 | inactive: 21.9% |
| Cc1csc(NC(=O)CCC(=O)N(CC(=O)NC2CCCC2)Cc2ccccc2)n1 | inactive: 9.17% |
| O=S(=O)(c1ccc(Cl)cc1)N1CCNCC1 | inactive: 2.27% |
| CC(=O)NCc1ccc(-c2nc3ccccc3s2)cc1 | inactive: -8.82% |
| CCC(=O)NC(c1cccc([N+](=O)[O-])c1)c1c(O)ccc2ccccc12 (centres undefined) | inactive: -9.25% |
| Cc1nc2nc[nH]n2c(=O)c1NS(=O)(=O)c1ccc([N+](=O)[O-])cc1 | inactive: 5.44% |
| N#C/C(=C\c1ccc2c(c1)OCO2)C(=O)NCc1ccco1 | inactive: -0.108% |
| Cc1ccc(NC(=O)Cn2c([N+](=O)[O-])cnc2C)cc1Cl | inactive: 2.28% |
| CCN(CC)CCOC(=O)c1cccc2c1-c1ccccc1C2O (centres undefined) | inactive: -3.51% |

| Structure (SMILES) | growth rescue (activation) |
| --- | --- |
| Cn1c(O)c(N=NC(=O)Cn2c(C(F)(F)F)nc3ccccc32)c2ccccc21 | inactive: 12.4% |
| O=C(c1cc(-c2ccccc2)on1)N1CCCCCC1 | inactive: 22.4% |
| Cc1ccc(CCC(=O)Nc2ccccc2F)s1 | inactive: 14.7% |
| CN(C)CCCNc1nc(-c2ccccc2)nc2ccccc12 | inactive: 14.8% |
| Cc1ccc(-n2nc3c(=O)n(C(C)C(=O)O)nc(C)c3c2C)cc1 (centres undefined) | inactive: -8.74% |
| Cn1c(N)c(C(=O)COC(=O)CNC(=O)c2ccccc2F)c(=O)n(C)c1=O | inactive: -16.6% |
| CCN1CCCC1CNC(=O)C(=O)NCCc1ccc(OC)c(OC)c1 (centres undefined) | inactive: -14.9% |
| O=C(NCc1cccnc1)C12CC3CC(CC(C3)C1)C2 | inactive: -8.49% |
| CCc1ccccc1NC(=S)N(CCN(C)C)C(C)c1ccco1 (centres undefined) | inactive: 1.09% |
| CC(=O)c1cccc(NC(=O)Nc2ccc(C)cc2)c1 | inactive: -9.95% |
| Cc1c(C(=O)N2CCOCC2)sc(NC(=O)CCl)c1C#N | inactive: 8.42% |
| COC(=O)CN1C(=S)N(c2ccc(OC)cc2)C(=O)/C1=C/c1ccc(OC)cc1 | inactive: -4.77% |
| O=C(c1ccco1)N1CCN(c2ncnc3c(-c4ccc(Cl)cc4)nsc23)CC1 | inactive: 13.2% |
| Cc1ccc(C)c(N2N=C(C(=O)O)CCC2=O)c1 | inactive: 10.2% |
| CCOC(=O)NC(O)C(=O)c1cccs1 (centres undefined) | inactive: 24.1% |
| N#Cc1ccccc1NC(=O)COC(=O)c1cccs1 | inactive: -11.1% |
| COc1cccc(-c2cc(NC=O)c3ncc(-c4ccc(F)c(Cl)c4)n3c2)c1 | inactive: 26.9% |
| CC(=O)N1N=C(c2ccc(C)o2)CC1c1cccc(F)c1 (centres undefined) | inactive: 6.06% |
| CCOc1ccc2ccccc2c1/C=N/NC(=O)CNC(=O)c1ccccc1F | inactive: -13.2% |
| Cc1ccc([N+](=O)[O-])cc1NC(=O)c1ccc(-c2ccccc2)cc1 | inactive: 1.1% |
| Cc1ccc(NC(=O)C2(C)CCN2C(=O)Cc2ccccc2)cc1C (centres undefined) | inactive: 25.7% |

From PubChem BioAssay AID1347073 (National Center for Advancing Translational Sciences (NCATS), 2019)
